Measurements reported in patent publication US20050214830A1, “G protein-binding proteins and polynucleotides encoding the same” (Wyeth, priority 1998, published 2005).

Experiments:
rat Gαi2 = molecular target: T1, rat Gαi2 (Rattus norvegicus, UniProt P04897); experiment: Yeast 2-hybrid (Y2H) bioassay for BBP interaction with Gαi2; details: BBP intracellular loop as Gal4 DNA-binding domain fusion; C-terminal region of Gα as Gal4 activation domain fusion; compared to vector
T1 construct: fusion proteins containing C-terminal regions of Gα proteins in Y2H assays; expressed in transfected cells; host or cells: yeast strain CY770, plasmid pACT2
T1 sequence (P04897 213-355 limits assumed): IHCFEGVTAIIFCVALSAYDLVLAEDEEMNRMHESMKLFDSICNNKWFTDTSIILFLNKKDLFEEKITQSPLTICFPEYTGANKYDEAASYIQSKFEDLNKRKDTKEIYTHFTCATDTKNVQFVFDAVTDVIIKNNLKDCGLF
Source text: (§1) Yeast 2-hybrid assays. Y2H expression plasmids were constructed in the vectors pAS2 and pACT2 (Wade Harper et al., 1993). Strain CY770 (Ozenberger and Young, 1995) served as the host for Y2H assays. Sequences encoding the BBPI intracellular loop were amplified using the oligonucleotides 5′-CCTTCC ATGGAAGTGGCAGTCGCATTGTCT [SEQ ID NO:24] plus 5′-AACACTCGAG TCAAAACCCTACAGTGCAAAAC [SEQ ID NO:25]. This product, containing BBP1 codons 185 to 217, was digested with NcoI+XhoI and cloned into pAS2 cleaved with NcoI+SaII to generate pOZ339. Sequences encoding the BBP2 intracellular loop were amplified using the oligonucleotides 5′-CCATG GCCACTTTACTCTACTCCTTCTT [SEQ ID NO:26] plus 5′-CTCGAG TCA AAT CCC MG TCC TCC MG CG [SEQ ID NO:27]. […]
(§2) The various combinations of plasmids were transformed into strain CY770 by standard protocols. […] Cells were concentrated by centrifugation, counted and 10-fold serial dilutions made from 10^4 to 10^8 cells per ml in sterile water. […]
(§3) BBP1 contains a structural motif known to be a Gα protein activating sequence in the related G protein-coupled receptors. The intracellular sequences of each BBP were expressed as fusion proteins and assayed. for physical interactions with fusion proteins containing C-terminal regions of Gα proteins in Y2H assays.

[1] = system: Human Ntera2 (Nt2) stem cells; experiment: Staurosporine-induced nuclear condensation (apoptosis) in transfected Nt2 stem cells; assay type: cell-based; details: recombinant expression in Nt2 stem cells, 100 nM staurosporine for 3 hrs
Source text: Mammalian expression plasmids. BBP cDNAs were modified by polymerase chain reaction (PCR) for expression from the vector pcDNA3.1 (Invitrogen Corp., Carlsbad, Calif.). BBP1 cDNA was amplified from pBBP1-fl (ATCC #98617); from the third potential translation start site to the translation stop codon, adding a 5′ EcoRI and a 3′ SaII site for cloning. The BBP1 cDNA contains three potential translation starts (codons 1, 30, and 63). The third start site was chosen for the described experiments because the first two potential initiating codons lack appropriate sequence context for efficient translation initiation (see Kozak, 1996), and based on similarities of the protein derived from the third start site with a putative BBP1 orthologue from Drosophila melanogaster (Genbank accession M941984). FIG. 1 depicts this minimal BBP1 translation product to optimize the alignment with the other BBP subtypes. The PCR primers were 5′-TGGTGAATTC GAAAGTGTCG GTCTCAACG ATG G [SEQ ID NO:36] (+strand) and 5′-CTTCGTCGAC TTATGGATATAATTGCGTTTTTC [SEQ ID NO:37] (−strand). The PCR product was digested with EcoRI+SaII and cloned into pcDNA3.1/EcoRI−XhoI to create pOZ363. BBP2 and BBP3 expression plasmids were similarily engineered. […]

rat Gαo = molecular target: T2, rat Gαo (Rattus norvegicus, UniProt P59215); experiment: Yeast 2-hybrid (Y2H) bioassay for BBP interaction with Gαo; details: BBP intracellular loop as Gal4 DNA-binding domain fusion; C-terminal region of Gα as Gal4 activation domain fusion; compared to vector
T2 construct: fusion proteins containing C-terminal regions of Gα proteins in Y2H assays; expressed in transfected cells; host or cells: yeast strain CY770, plasmid pACT2
T2 sequence (P59215 213-354 limits assumed): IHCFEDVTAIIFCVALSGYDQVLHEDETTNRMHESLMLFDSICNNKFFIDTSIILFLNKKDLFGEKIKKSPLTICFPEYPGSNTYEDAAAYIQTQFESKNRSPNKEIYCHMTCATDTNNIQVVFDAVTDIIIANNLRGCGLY
Source text: as §1, §2, §3

rat Gαs = molecular target: T3, rat Gαs (Rattus norvegicus, UniProt P63095); experiment: Yeast 2-hybrid (Y2H) bioassay for BBP interaction with Gαs; details: BBP intracellular loop as Gal4 DNA-binding domain fusion; C-terminal region of Gα as Gal4 activation domain fusion; compared to vector
T3 construct: fusion proteins containing C-terminal regions of Gα proteins in Y2H assays; expressed in transfected cells; host or cells: yeast strain CY770, plasmid pACT2
T3 sequence (P63095 235-394 limits assumed): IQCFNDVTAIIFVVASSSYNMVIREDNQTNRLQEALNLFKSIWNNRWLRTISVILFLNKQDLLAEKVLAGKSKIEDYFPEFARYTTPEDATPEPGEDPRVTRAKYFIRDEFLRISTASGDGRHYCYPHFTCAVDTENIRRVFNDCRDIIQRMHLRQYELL
Source text: as §1, §2, §3

B1: BBP2: 214 amino acid BBP family protein, SEQ ID NO:4; expressed from pFL11 (protein, listed as Homo sapiens)
chain: MVLGGCPVSYLLLCGQAALLLGNLLLLHCVSRSHSQNATAEPELTSAGAAQPEGPGGAASWEYGDPHSPVILCSYLPDEFIECEDPVDHVGNATASQELGYGCLKFGGQAYSDVEHTSVQCHALDGIECASPRTFLRENKPCIKYTGHYFITTLLYSFFLGCFGVDRFCLGHTGTAVGKLLTLGGLGIWWFVDLILLITGGLMPSDGSNWCTVY
Which “physical interaction with Gαi (Y2H growth response)” value (rat Gαi2) does the source give for B1 here?
Its value is “no apparent association”.

And the “suppression of staurosporine-induced nuclear condensation (antiapoptotic activity), in words” value [1]?
Its value is “suppressed the induction of nuclear condensation to the same levels as BBP1”.

What about the “physical interaction with Gαo (Y2H growth response)” value (rat Gαo) of the same molecule?
Its value is “no apparent association”.

And the “physical interaction with Gαs (Y2H growth response)” value (rat Gαs)?
The value was “preferential interactions”.
